Results: PubChem BioAssay AID1159614 (National Center for Advancing Translational Sciences (NCATS), 2016)
In all, about 45,000 compounds went through this assay and about 65 (0.1%) were called active. Calls come from the whole dose curve; as a rule, active = well fitted activation curve with a large enough effect; inconclusive = small, poorly fitted or top-dose-only effect; inactive = no such curve, though single readings can be large or run the other way. Some of the results follow.
Note: 0% is about no effect; nearly all actives have a fitted effect of over 65% in size.

The compounds below were run against Galactocerebrosidase (Homo sapiens) (UniProt P54803) (assay: A Novel Cell-Based Assay to Identify Small Molecules for B -Galactocerebrosidase). Conditions: 145M-Twi-hGALC-G270D cells (Twitcher mouse brain line with human GALC G270D), HMU-beta-Gal fluorescence, 48 h; series mostly up to 57.5 µM; activation: at the top concentration.
Chain of UniProt P54803 (P54803 whole entry, looked up): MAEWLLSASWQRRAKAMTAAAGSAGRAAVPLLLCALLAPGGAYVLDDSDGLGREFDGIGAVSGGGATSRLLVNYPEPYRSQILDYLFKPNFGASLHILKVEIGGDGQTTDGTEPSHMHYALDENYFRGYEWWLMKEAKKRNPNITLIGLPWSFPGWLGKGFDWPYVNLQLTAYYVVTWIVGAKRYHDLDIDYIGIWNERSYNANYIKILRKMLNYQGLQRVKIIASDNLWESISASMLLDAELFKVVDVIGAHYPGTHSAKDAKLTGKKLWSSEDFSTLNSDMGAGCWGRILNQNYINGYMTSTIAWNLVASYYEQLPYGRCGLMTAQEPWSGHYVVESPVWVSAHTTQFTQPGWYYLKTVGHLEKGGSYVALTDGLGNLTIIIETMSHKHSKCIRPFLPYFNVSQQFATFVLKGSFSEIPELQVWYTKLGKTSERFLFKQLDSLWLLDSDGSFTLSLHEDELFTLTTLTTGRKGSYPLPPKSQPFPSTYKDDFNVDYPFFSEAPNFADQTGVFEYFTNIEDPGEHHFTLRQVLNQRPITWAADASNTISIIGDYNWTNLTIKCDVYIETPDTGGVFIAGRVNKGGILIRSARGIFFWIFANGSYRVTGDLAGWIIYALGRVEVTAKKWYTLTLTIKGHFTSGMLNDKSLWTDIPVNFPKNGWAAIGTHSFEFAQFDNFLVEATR
Method in brief: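 Mutant human GALC (G270D), stably expressed in a Twitcher mouse brain cell line lacking endogenous GALC, is measured in live-treated cells via 6-hexadecanoylamino-4-methylumbelliferyl-β-galactoside hydrolysis (0.1 mM final, pH 5.2) with fluorescent detection.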
For `CCOc1ccc(/C=C/c2nc3ccccc3n2S(=O)(=O)c2ccc(Br)cc2)cc1`, the “activation” value was inactive: -7.48%.
In the case of `O=C(Cn1c(=O)nc(-c2ccccc2)c2cc(Cl)ccc21)NCCc1ccc(Cl)cc1`, the “activation” value is reported as inactive: -4.81%.
For `COc1ccc(S(=O)(=O)NCC(c2ccco2)N2CCOCC2)cc1C` (stereo not drawn), the “activation” value was inactive: -9.08%.
`COc1ccccc1N1CCN(S(=O)(=O)c2c(C)sc3ncn(CC(=O)Nc4ccccc4F)c(=O)c23)CC1` was tested, and the “activation” value was inactive: -10.8%.
In the case of `CCOc1ccc(NC(=O)CSc2nnc(CNC(=O)c3c(F)cccc3Cl)o2)cc1`, the “activation” value is reported as inactive: -16.1%.
For `CCc1ccc(-c2[nH]nc3nc(-c4ccc(OC)cc4)cc(C(=O)NCCc4ccc(OC)c(OC)c4)c23)cc1`, the “activation” value was inactive: -2.61%.
For `CCc1ccc(NCc2cccn2-c2nnc(N3CCCCCC3)s2)cc1`, the “activation” value was inactive: -37.8%.
`CCN1CCN(c2ncc3c(n2)CCN(Cc2ccc(Br)s2)C3)CC1` was tested, and the “activation” value was inactive: -12.2%.
In the case of `COC(=O)c1ccc(Cl)cc1NC(=O)N(Cc1ccc(C)o1)C1CCN(C(C)=O)CC1`, the “activation” value is reported as inactive: -10%.
In the case of `COc1ccc(C(=O)NCC2(N3CCN(C)CC3)CCCCC2)cc1`, the “activation” value is reported as inactive: -14.2%.
For `COc1ccc(C)cc1NS(=O)(=O)c1ccc2c(c1)n(C)c(=O)n2C`, the “activation” value was inactive: -11%.
`CCC(CC)c1nn2c(=O)cc(COc3ccc(NC(=O)c4cccc(Cl)c4)cc3)nc2s1` was tested, and the “activation” value was inactive: -0.619%.
With `CCC(C)NC(=O)c1ccc2c(=O)n3c(nc2c1)CCCCC3` (stereo not drawn) the “activation” value was inactive: -1.89%.
With `Cc1ccc2c(c1)N(C(=O)NCc1ccccc1)CCO2` the “activation” value was inactive: -17.8%.
With `Cc1ccc(NC(=O)Cn2nnc3sc(-c4ccccc4)cc3c2=O)cc1Cl` the “activation” value was inactive: -9.29%.
For `Cc1nnc2c(Nc3cccc(O)c3)nc3ccccc3n12`, the “activation” value was inactive: -14.8%.
`CCn1c(=O)c(=O)n(CC)c2cc(N3CCCCC3)c(NC(=O)c3cccc(F)c3)cc21` was tested, and the “activation” value was inactive: -19%.
In the case of `CCCN1Cc2cccc(C(=O)Nc3cc(C)cc(C)c3)c2C1=O`, the “activation” value is reported as inactive: -8.48%.
In the case of `CC(=O)Nc1ccc(C)cc1-c1nc2ccccc2n(CC(=O)Nc2cc(Cl)ccc2C)c1=O`, the “activation” value is reported as inactive: -11.3%.
In the case of `COc1ccc(NC(=O)Cn2c(=O)n(Cc3ccc(C(=O)NCc4ccccc4Cl)cc3)c(=O)c3ccccc32)cc1OC`, the “activation” value is reported as inactive: 1.25%.
For `COc1ccc(NC(=O)CSc2nc(-c3ccco3)cc(C(F)(F)F)n2)cc1`, the “activation” value was inactive: 8.11%.
`O=C1c2cccc3c2[C@H](CCC3)CN1[C@@H]1CN2CCC1CC2` was tested, and the “activation” value was inactive: -10.5%.
With `COc1ccc(Cl)cc1NC(=O)CCC(=O)N1CCOc2ccccc21` the “activation” value was inactive: -9.45%.
For `COc1ccccc1C(=O)Nc1nc2nc(C)cc(=O)n2[nH]1`, the “activation” value was inactive: -5.17%.
`CCOC(=O)c1cccc(NC(=O)CCc2nc3cccnc3n2-c2ccccc2)c1` was tested, and the “activation” value was inactive: -9.45%.
With `CCOc1ccc(NC(=O)C2(c3cccs3)CCOCC2)cc1` the “activation” value was inactive: -14.6%.
`Cc1cc(C)c2sc(NC(=O)c3ccc(S(=O)(=O)N4CCCC4)cc3)nc2c1` was tested, and the “activation” value was inactive: -13.8%.
In the case of `CNC(=O)Oc1ccc2c(c1)[C@]1(C)CCN(C)[C@@H]1N2C`, the “activation” value is reported as inactive: -5.98%.
For `CCOC(=O)c1c(C)[nH]c(CCC(=O)Nc2cc(Cl)ccc2OC)c1C`, the “activation” value was inactive: -13%.
With `O=C(O)CSCC(=O)NC1CCSC1=O` (stereo not drawn) the “activation” value was inactive: -12.5%.
For `CCOC(=O)c1c(C)oc2ccc(N(C(=O)c3ccncc3)S(=O)(=O)c3ccc(CC)cc3)cc12`, the “activation” value was inactive: -41.3%.
In the case of `COc1ccc(OC)c(S(=O)(=O)Nc2ccc3c(c2)n(C)c(=O)n3C)c1`, the “activation” value is reported as inactive: 0.952%.
`O=C(CN1C(=O)COc2ccc(S(=O)(=O)NC3CCCC3)cc21)Nc1ccc(Cl)cc1F` was tested, and the “activation” value was inactive: -26.7%.
In the case of `Cc1ccc(S(=O)(=O)N2CC=C(c3c(C)n(CC(=O)N4CCCC4)c4ccccc34)CC2)cc1C`, the “activation” value is reported as inactive: -30.5%.
`Cc1sc(-n2cccc2)c(C(C)NC(=O)Nc2cccc(C(F)(F)F)c2)c1C` (stereo not drawn) was tested, and the “activation” value was inactive: -5.48%.
With `COc1cc(OC)cc(C(=O)NCCc2csc3nc(-c4ccccc4F)nn23)c1` the “activation” value was inactive: -4.4%.
`COCCOCC(OC)OC` was tested, and the “activation” value was inactive: -9.18%.
In the case of `CN(C)S(=O)(=O)N(CC(=O)Nc1ccc(C(F)(F)F)cc1)c1ccccc1`, the “activation” value is reported as inactive: -6.6%.
`Cc1ccc(OCCSc2nc3ccc(NC(=O)c4cccs4)cc3s2)cc1` was tested, and the “activation” value was inactive: 19.7%.
`Cc1nc(N2CCOCC2)c2c(C(=O)NCc3ccc(Cl)cc3)c(C)oc2n1` was tested, and the “activation” value was inactive: -17.7%.
With `CCc1ccc(NC(=O)c2nc3nc(C)cc(C(F)F)n3n2)cc1` the “activation” value was inactive: -5.58%.
With `COc1ccc(CNC(=O)c2ccc3c(c2)N(Cc2cc(C)ccc2C)C(=O)CS3)cc1` the “activation” value was inactive: -1.18%.
For `COc1ccc(CNc2nc(-c3ccc(Cl)cc3)nn2S(=O)(=O)c2ccc(C)cc2)cc1`, the “activation” value was inactive: -25.9%.
With `COc1ccccc1CNS(=O)(=O)c1cc(Br)cc2c1N(C(=O)C1CC1)CC2` the “activation” value was inactive: -0.194%.
In the case of `CCOc1cccc(C(=O)N(Cc2ccc(C)o2)C2CCS(=O)(=O)C2)c1` (stereo not drawn), the “activation” value is reported as inactive: -12.3%.
In the case of `O=C(CCC(=O)N1CCSc2ccccc21)Nc1ccc(Cl)cc1`, the “activation” value is reported as inactive: -12.7%.
For `CCC(CC)c1nn2c(=O)cc(COc3ccc(NC(=O)c4cccc(C)c4)cc3)nc2s1`, the “activation” value was inactive: -19.3%.
`COc1cccc(CNC(=O)c2cc(-c3ccc(Cl)cc3)n[nH]2)c1` was tested, and the “activation” value was inactive: -8.76%.
